# About 60 (0.1%) of roughly 46,000 compounds were called active. Inconclusive results (about 3%) are left out. Calls come from the whole dose curve; as a rule, active = well fitted inhibition curve with a large enough effect; inconclusive = small, poorly fitted or top-dose-only effect; inactive = no such curve, though single readings can be large or run the other way. This is one part of the list.
# Experiment: Primary qHTS assay for Inhibitors of ovarian cancer metastasis using an organotypic tumor microenvironment (TME) model.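 For activity change, negative = inhibition: plate controls were DMSO wells for no effect and tomatine positive control wells for full effect.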 Note: nearly all actives have a fitted effect of over 65% in size.
# Conditions: SKOV3ip1-GFP adhesion/invasion on 3D omental model, fluorescence; series mostly up to 45.8 µM; activity change, negative = inhibition: at the top concentration
# How it was run: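 A 3D layer of primary human omental fibroblasts, mesothelial cells, fibronectin and collagen I, grown 48 hr, received SKOV3ip1-GFP cells in serum-free medium plus compounds at 0.36-46 umol/L. After 2 hr RT and 16 hr 37 C, fixed adherent GFP cells were counted; normalized to DMSO and tomatine.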
SMILES,"activity change, negative = inhibition",outcome
CC1CCCN(S(=O)(=O)c2ccc3[nH]c(=O)cc(C(=O)NCCc4ccc(Cl)cc4)c3c2)C1 (stereo not drawn),inactive: 4.37%,–
COc1ccc(C)cc1NC(=O)CSc1nc2ccccc2nc1N1CCOCC1,inactive: 1.88%,–
O=C1CCSc2ccc(S(=O)(=O)Nc3ccc(Cl)c(C(F)(F)F)c3)cc2N1,–,inactive
CC(C)c1ccc(NC(=O)c2ccc(F)c(S(=O)(=O)N3CCCCCC3)c2)cc1,–,inactive
COc1cc(NC(=O)c2sc3nc4n(c(=O)c3c2C)CCCCC4)cc(OC)c1OC,inactive: 2.9%,–
COc1ccc(CNC(=O)c2nc(Cn3nc(C)c(Br)c3C)no2)cc1OC,–,inactive
COc1ccc(Cc2nc3ccc(C(=O)NCc4ccc(OC)cc4OC)cc3o2)cc1,–,inactive
Cc1noc(C)c1S(=O)(=O)N1CCC(C(=O)Nc2ccc(Br)cc2)CC1,inactive: 1.71%,–
CCc1ccccc1NC(=O)C1CCN(S(=O)(=O)c2ccc3[nH]c(=O)ccc3c2)CC1,–,inactive
CC(C)(C)c1ccc(C(=O)Nc2cc(-c3nc4ccccc4o3)ccc2Cl)cc1,inactive: 6.21%,–
CCCCn1c(=O)c2oc3ccccc3c2n(CC(=O)Nc2cccc(Cl)c2C)c1=O,–,inactive
Cc1ccc(C)c(NC(=O)CSc2nc(-c3ccccc3)cc(=O)[nH]2)c1,inactive: 1.42%,–
CCN(C(=O)c1cc2cc3ccc(OC)cc3nc2o1)c1cccc(C)c1,inactive: 11.6%,–
COc1ccc(N2CCN(S(=O)(=O)c3c(C)[nH]c(=O)[nH]c3=O)CC2)cc1,inactive: 1.3%,–
COc1ccc(CCNC(=O)C(=O)Nc2ccc(C)cc2)cc1OC,inactive: -12.4%,–
CC(=O)c1ccc(Oc2nc(C)nc3c2oc2ccccc23)cc1,inactive: 0.408%,–
COc1ccc(-c2nc(C(=O)Nc3ccc(C(C)=O)cc3)nn2-c2cccc(Cl)c2)cc1,inactive: -7.44%,–
COc1ccc(S(=O)(=O)N(CC(=O)Nc2cccc(C(F)(F)F)c2)c2ccc(C)cc2)cc1,inactive: 32.9%,–
Cn1c(=O)n(C/C=C/c2ccccc2)c(=O)c2c1nc1n2CCN1c1ccccc1,inactive: 23.9%,–
CCCCOc1ccc(CNC(=O)C2COc3ccc(OC)cc3C2)cc1 (stereo not drawn),inactive: -5.16%,–
CN(C)Cc1c(C(=O)NCCOc2ccc(C(=O)NO)cc2)oc2ccccc12,inactive: -11.3%,–
COc1ccc(OC)c(-c2csc(-c3c(N)c(C(=O)c4ccccc4)n4ccccc34)n2)c1,inactive: -0.622%,–
COc1ccc(CN(Cc2ccco2)c2cnc(S(C)(=O)=O)nc2C(=O)Nc2ccc(F)cc2)cc1,inactive: -0.492%,–
CC(C)NCC(O)COc1ccc(COCCOC(C)C)cc1 (stereo not drawn),inactive: -4.51%,–

SMILES,"activity change, negative = inhibition",outcome
Cc1ccc(NC(=O)CN2C(=O)COc3ccc(S(=O)(=O)N4CCCCC4)cc32)cc1N(C)C,inactive: 21.5%,–
COC(=O)c1cccnc1-n1c(=O)c2cccnc2n(CC(=O)Nc2c(C)cc(C)cc2C)c1=O,inactive: -1.88%,–
O=C(Cn1ncn2nc(-c3cccs3)cc2c1=O)NCc1cccc(Br)c1,inactive: -6.4%,–
CCOc1ccc(C(=O)c2cn(CC(=O)Nc3ccc4c(c3)OCO4)c3ccc(OCC)cc3c2=O)cc1,–,inactive
COc1ccc(-n2c(=O)c3c(c4cc(OC)ccc4n3C)n(Cc3cc(C)ccc3C)c2=O)cc1,–,inactive
Cc1ccc(NC(=O)Cn2c(=O)n(-c3ccccc3)c(=O)c3ccc(C(=O)NCc4ccc5c(c4)OCO5)cc32)c(C)c1,–,inactive
CCOc1ccc(S(=O)(=O)N(CC(=O)Nc2ccc3c(c2)OCO3)c2ccccc2)cc1,inactive: 13.1%,–
CC(C)CN(CCNC(=O)CN1C(=O)CSc2ccc(S(=O)(=O)N3CCOCC3)cc21)CC(C)C,inactive: 13%,–
CC1(C)CC(=O)c2c(C(F)(F)F)nn(-c3ccc(C(N)=O)c(NC4CCC(OC(=O)CN)CC4)c3)c2C1 (stereo not drawn),inactive: 17.5%,–
Nc1c(C(=O)c2ccc(F)cc2)sc(Nc2ccccc2F)c1S(=O)(=O)c1ccc(Br)cc1,–,inactive
Cc1cccc(CNC(=O)c2ccc(NC(=O)N3CC(C)Sc4ccccc43)cc2)c1 (stereo not drawn),inactive: 3.55%,–
CCOC(=O)c1cccc(NC(=O)c2ccc3nc(Cc4ccccc4)oc3c2)c1,inactive: -0.731%,–
COc1ccccc1CNC(=O)c1ccc2c(c1)CCN2S(=O)(=O)c1ccccc1,inactive: -8.23%,–
O=C(Nc1c(-c2ccc(F)cc2)nc2ccccn12)c1ccccc1F,–,inactive
O=C(/C=C\c1ccc2c(c1)OCO2)NC1CC(=O)N(c2cccc(F)c2)C1 (stereo not drawn),inactive: 5.32%,–
COc1ccccc1N1CCN(C(=O)CSc2n[nH]c(-c3ccccc3)n2)CC1,inactive: -15.2%,–
Cc1cc2ccccc2n1-c1ccc(C(=O)N2CCC(C(=O)NCc3ccccc3Cl)CC2)s1,inactive: 3.81%,–
COc1cccc(/C=C/c2onc(C)c2S(=O)(=O)N2CCC(C(=O)N3CCC(C)CC3)CC2)c1,–,inactive
Cc1ccc(-n2c3c(c(=O)[nH]c2=O)C(NC(=O)c2ccccc2C)(C(F)(F)F)C(=O)N3)cc1 (stereo not drawn),inactive: -4.81%,–
CCOC(=O)C1=C(CN2CCN(c3ccccc3F)CC2)NC(=O)NC1c1ccc(Cl)cc1 (stereo not drawn),–,inactive
COC(=O)c1scc(-c2ccc(C)cc2)c1S(=O)(=O)Nc1ccc(N(C)C)cc1,inactive: -15.6%,–
COc1ccc(-c2cn3c(n2)sc2cc(C(=O)Nc4cccc(OC)c4)ccc23)cc1,–,inactive
Cc1ccccc1NCc1cccn1-c1nnc(N2CCC(C)CC2)s1,inactive: 22.1%,–
CC(CNC(=O)Cc1ccc(NC(=O)N2CCSc3ncccc32)cc1)c1ccccc1 (stereo not drawn),inactive: 1.1%,–
